Results: PubChem BioAssay (NCATS)
Inconclusive results, whose numbers are uncertain, are shown with a selection of clear calls. For some assays here: No potency is given beside an inconclusive call; the fits are too rough. Activity calls are given as the source filed them. Unless noted, calls follow the shape of the dose curve; as a rule, active = well fitted curve in the direction sought with a large enough effect; inconclusive = small, poorly fitted or top-dose-only effect, or another doubt; inactive = no such curve, though single readings can be large; an effect the other way counts as inactive or inconclusive.

Legend:
[1] = biological target: Cytochrome P450 2D6 (Homo sapiens) (UniProt P10635); assay: Cytochrome P450 family 2 subfamily D member 6 (CYP2D6) small molecule antagonists: luciferase biochemical (cell-free) qHTS assay (AID 1645840; active = well fitted curve in the direction sought with a large enough effect in the repeat runs; inconclusive = weak or mixed curves; inactive = no such curve, though single readings can be large; an effect the other way counts as inactive or inconclusive; also: potency is read from the fitted curve at half-maximal effect; nearly all actives have a fitted effect of over 55% in size)
Sequence of UniProt P10635 (P10635 whole entry, looked up): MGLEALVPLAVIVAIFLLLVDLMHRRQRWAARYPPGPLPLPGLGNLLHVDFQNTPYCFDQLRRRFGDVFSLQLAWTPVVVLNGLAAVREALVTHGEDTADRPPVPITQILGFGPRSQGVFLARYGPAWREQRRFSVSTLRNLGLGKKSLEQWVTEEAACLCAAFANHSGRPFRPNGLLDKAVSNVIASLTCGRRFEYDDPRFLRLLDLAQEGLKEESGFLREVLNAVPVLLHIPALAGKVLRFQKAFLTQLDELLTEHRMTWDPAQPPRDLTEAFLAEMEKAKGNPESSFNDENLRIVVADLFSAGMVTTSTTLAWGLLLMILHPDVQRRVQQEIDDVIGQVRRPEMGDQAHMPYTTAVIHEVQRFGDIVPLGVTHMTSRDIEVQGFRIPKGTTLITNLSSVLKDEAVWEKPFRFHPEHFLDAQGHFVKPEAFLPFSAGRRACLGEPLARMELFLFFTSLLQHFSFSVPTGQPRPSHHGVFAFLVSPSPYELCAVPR
Summary of the method: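 P450-Glo CYP2D6 system: proluciferin substrate converted by enzyme to luciferin, read by luminescence proportional to activity. Enzyme-substrate mix with compound 10 min at room temperature, then NADPH regeneration 1 h before detection reagent.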

[2] = Primary fluorescence-based thiol-reactive (MSTI) qHTS assay for identification of artifact compounds. (AID 1845221);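 also: thiol-reactive compounds lower the probe fluorescence signal; nearly all actives have a fitted effect of over 65% in size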
Summary of the method: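 Thiol-reactive compounds detected by quenching of 4 uM MSTI fluorescence (525/598 nm) after 1 h room-temperature dark incubation in PBS pH 7.4, 2% DMSO. qHTS titration; percent inhibition Hill-fitted against Acetyl-MSTI/MSTI controls.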

[3] = Primary redox qHTS assay for identification of artifact compounds. (AID 1845223); also: potency is read from the fitted curve at half-maximal effect
Summary of the method: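 Redox-cycling detection via DTT (250 uM final) oxidation coupled to Amplex Red (25 uM)/HRP (250 mU/mL) in HBSS. 15 min preincubation plus 30 min after DTT, room temperature. Ex/Em 525/598 nm; 4-parameter Hill fit against DMSO and 10 uM DA3003.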

[4] = qHTS of pediatric cancer cell lines to identify multiple opportunities for drug repurposing: Primary screen for DAOY cells (AID 1347090); conditions: DAOY medulloblastoma viability, CellTiter-Glo luminescence, 48 h; activity change, negative = cytotoxic: at 46 µM (top of the series); also: potency is read from the fitted curve at half-maximal effect; nearly all actives have a fitted effect of over 55% in size
Summary of the method: (§1)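 Viability measured as metabolically active cells via CellTiter-Glo luminescence following 48 hours of compound exposure, 11-point dilutions in confirmatory testing. 500-1,000 cells/well plated 5 hours before dosing; controls were DMSO and 2.3 µM bortezomib.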

[5] = qHTS of pediatric cancer cell lines to identify multiple opportunities for drug repurposing: Primary screen for U-2 OS cells (AID 1347096); also: potency is read from the fitted curve at half-maximal effect; nearly all actives have a fitted effect of over 50% in size
Summary of the method: (§2)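 Viability after 48 h compound treatment at 37C, 500-1,000 cells/well, read as ATP luminescence with CellTiter-Glo. Primary screens used 11-point (MIPE, 0.78 nM-46 µM) or 8-point (NPC, 0.59 nM-46 µM) final concentrations; follow-up screens used 11-point dilutions.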

[6] = qHTS of pediatric cancer cell lines to identify multiple opportunities for drug repurposing: Primary screen for LAN-5 cells (AID 1347100); also: potency is read from the fitted curve at half-maximal effect
Summary of the method: as §2

[7] = qHTS of pediatric cancer cell lines to identify multiple opportunities for drug repurposing: Primary screen for Rh18 cells (AID 1347102); also: potency is read from the fitted curve at half-maximal effect; nearly all actives have a fitted effect of over 65% in size
Summary of the method: as §2

[8] = qHTS of pediatric cancer cell lines to identify multiple opportunities for drug repurposing: Primary screen for OHS-50 cells (AID 1347103); also: potency is read from the fitted curve at half-maximal effect; nearly all actives have a fitted effect of over 40% in size
Summary of the method: (§3)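 Cells (500-1,000/well) rested 5 h, then received compounds for 48 h; metabolically active cells were measured by CellTiter-Glo luminescence. Final concentrations spanned up to 46 µM (MIPE, 11-point) or 0.59 nM-46 µM (NPC, 8-point) in primary screens, 11-point in follow-ups.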

[9] = qHTS of pediatric cancer cell lines to identify multiple opportunities for drug repurposing: Primary screen for Rh30 cells (AID 1347107); also: potency is read from the fitted curve at half-maximal effect; nearly all actives have a fitted effect of over 75% in size
Summary of the method: as §2

[10] = qHTS to identify inhibitors of the type 1 interferon - major histocompatibility complex class I in skeletal muscle: primary screen against the NCATS Mechanism Interrogation Plate v5.0 (MIPE) Libary (AID 1347411); conditions: iHSKM cells + IFN-b, HiBiT-tagged MHC-I luminescence, 24 h; series mostly up to 45.8 µM; also: potency is read from the fitted curve at half-maximal effect; nearly all actives have a fitted effect of over 65% in size
Summary of the method: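 IFN-beta-driven (4 ng/ml) HLA-B-HiBit expression in CRISPR-tagged C25cl48 myoblasts; compounds 11-pt, 1:3, max 46 uM, 24 hr exposure; lytic NanoLuc complementation luminescence.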

UISO = assay: qHTS assay to identify novel small-molecules to repurpose for Merkel cell carcinoma treatment (AID 1296009); conditions: MCC and control cell lines, CellTiter-Glo viability, 72 h; series mostly up to 46 µM; also: potency is read from the fitted curve at half-maximal effect; nearly all actives have a fitted effect of over 60% in size
Summary of the method: (§4)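 CellTiter-Glo luminescence after 72 hr compound exposure at 37 degree celsius gave cell viability. Libraries NPC and MIPE were run as 8- and 11-point dose responses; RLUs normalized to DMSO (negative) and no-cell (cytotoxicity) controls.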

[11] = qHTS of pediatric cancer cell lines to identify multiple opportunities for drug repurposing: Primary screen for SJ-GBM2 cells (AID 1347091); also: potency is read from the fitted curve at half-maximal effect
Summary of the method: as §1

[12] = qHTS of pediatric cancer cell lines to identify multiple opportunities for drug repurposing: Primary screen for SK-N-SH cells (AID 1347098); conditions: SK-N-SH viability, CellTiter-Glo luminescence, 48 h; activity change, negative = cytotoxic: at 57 µM (top of the series); also: potency is read from the fitted curve at half-maximal effect; nearly all actives have a fitted effect of over 65% in size
Summary of the method: as §3

[13] = qHTS of pediatric cancer cell lines to identify multiple opportunities for drug repurposing: Primary screen for BT-12 cells (AID 1347101); also: potency is read from the fitted curve at half-maximal effect; nearly all actives have a fitted effect of over 25% in size
Summary of the method: as §3

[14] = qHTS of pediatric cancer cell lines to identify multiple opportunities for drug repurposing: Primary screen for Rh41 cells (AID 1347108); also: potency is read from the fitted curve at half-maximal effect; nearly all actives have a fitted effect of over 70% in size
Summary of the method: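 Viability was measured as metabolically active cells after 48 hours of treatment, read by CellTiter-Glo luminescence. Compounds were tested at multiple final concentrations, giving concentration-response curves.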

[15] = tested on: Zika virus NS2B-NS3 protease (unlinked complex); assay: Primary screen GU Rhodamine qHTS for Zika virus inhibitors: Unlinked NS2B-NS3 protease assay (AID 1347159); also: nearly all actives have a fitted effect of over 60% in size
Summary of the method: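 In dose–response format, inhibition of unlinked protease (25 nM) was measured with 1.5 microM bis-peptide Rhodamine110 substrate. Aprotinin served as the intraplate control.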

[16] = biological target: Cytochrome P450 2C9 (Homo sapiens) (UniProt P11712); assay: Cytochrome P450 family 2 subfamily C member 9 (CYP2C9) small molecule antagonists: luciferase biochemical (cell-free) qHTS assay (AID 1645842; active = well fitted curve in the direction sought with a large enough effect in the repeat runs; inconclusive = weak or mixed curves; inactive = no such curve, though single readings can be large; an effect the other way counts as inactive or inconclusive; also: potency is read from the fitted curve at half-maximal effect; nearly all actives have a fitted effect of over 55% in size)
Sequence of UniProt P11712 (P11712 whole entry, looked up): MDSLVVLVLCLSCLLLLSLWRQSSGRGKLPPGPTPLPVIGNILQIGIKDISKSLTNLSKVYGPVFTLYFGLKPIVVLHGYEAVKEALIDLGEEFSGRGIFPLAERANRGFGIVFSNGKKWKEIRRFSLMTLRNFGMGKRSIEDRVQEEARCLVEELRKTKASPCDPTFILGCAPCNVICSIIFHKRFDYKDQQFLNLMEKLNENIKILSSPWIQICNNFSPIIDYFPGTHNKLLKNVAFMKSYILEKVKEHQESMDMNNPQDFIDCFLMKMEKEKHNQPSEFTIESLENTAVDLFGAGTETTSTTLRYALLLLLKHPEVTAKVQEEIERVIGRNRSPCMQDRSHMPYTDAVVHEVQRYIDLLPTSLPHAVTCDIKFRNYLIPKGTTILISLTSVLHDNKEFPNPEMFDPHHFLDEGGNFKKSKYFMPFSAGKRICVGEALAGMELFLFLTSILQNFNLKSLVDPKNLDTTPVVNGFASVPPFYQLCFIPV
Summary of the method: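 P450-Glo CYP2C9 system: proluciferin substrate with enzyme in mix containing 0.4% BSA, 10 min at room temperature, then NADPH regeneration solution added and incubated 1 h at 37C. Detection reagent stopped reaction; luminescence read after 20 min as RLU.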

WaGa = assay: qHTS assay to identify novel small-molecules to repurpose for Merkel cell carcinoma treatment (AID 1296009); conditions: MCC and control cell lines, CellTiter-Glo viability, 72 h; series mostly up to 46 µM; also: potency is read from the fitted curve at half-maximal effect; nearly all actives have a fitted effect of over 60% in size
Summary of the method: as §4
Tags tell the direction and shape of the fitted curve.

**Q.** For Cc1nc(Nc2cnn(C3CCNCC3)c2)nc2c1N(C)C(=O)c1cc3ccccc3cc1N2C, which Potency [1] is on record?
**A.** inconclusive [inhibitor, partial curve]

**Q.** What about the Potency [2] of the same molecule?
**A.** inactive

**Q.** What about the Potency [3] of the same molecule?
**A.** inconclusive [activator, partial curve, poor fit]

**Q.** With COc1cc2ncnc(Nc3ccc(Oc4ccccc4)cc3)c2cc1OC as the molecule, how does the Potency [1] read?
**A.** active: 19 µM

**Q.** And the Potency [2]?
**A.** inactive

**Q.** What about the Potency [3] of the same molecule?
**A.** inactive

**Q.** What does the source list for Cc1cnc(Nc2ccc(CN3CCOCC3)cc2)nc1Nc1cccc(S(=O)(=O)NC(C)(C)C)c1?
**A.** Potency [4]: active: 4.69 µM; Potency [5]: active: 7.43 µM; Potency [6]: active: 1.32 µM; Potency [7]: active: 3.72 µM; Potency [8]: active: 2.17 µM; Potency [9]: active: 6.62 µM; Potency [10]: active: 2.94 µM; Potency (UISO): inconclusive [inhibitor, full curve]

**Q.** With CC[C@]12CCCN3CCc4c(n(c5ccccc45)C(=O)C1)[C@@H]32 as the molecule, how does the Potency [4] read?
**A.** inconclusive [cytotoxic, single point]

**Q.** And the Potency [11]?
**A.** active: 5.96 µM

**Q.** And the Potency [12]?
**A.** inconclusive [cytotoxic, single point]

**Q.** What about the Potency [6] of the same molecule?
**A.** inconclusive [cytotoxic, full curve]

**Q.** And the Potency [13]?
**A.** inconclusive [cytotoxic, full curve]

**Q.** What about the Potency [7] of the same molecule?
**A.** inconclusive [cytotoxic, partial curve]

**Q.** And the Potency [9]?
**A.** inconclusive [cytotoxic, partial curve, poor fit]

**Q.** What about the Potency [14] of the same molecule?
**A.** inconclusive [cytotoxic, partial curve]

**Q.** And the Potency [15]?
**A.** inactive

**Q.** And the Potency [16]?
**A.** inconclusive [inhibitor, partial curve]

**Q.** And the Potency (UISO)?
**A.** inconclusive [inhibitor, partial curve]

**Q.** And the Potency (WaGa)?
**A.** inconclusive [inhibitor, partial curve]
